The other results are listed elsewhere or left out.
Tests used:
Test in all cases: glycan array binding signal (z-score within array); higher = stronger binding
Details in all cases: glycan notation: IUPAC condensed, linker removed
Fuc(a1-2)Gal = biological target: Fuc(a1-2)Gal
Summary of the method: (§1)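 Negative Z-scores can be read as non-binding. The Z-score is calculated within each array and then averaged across arrays of one protein sequence at different concentrations or buffers and across linkers. Arrays, 3228 in all, were curated from the Consortium for Functional Glycomics database and kept only where the protein sequence was available.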

Fuc(a1-2)Gal(b1-3)GalNAc = biological target: Fuc(a1-2)Gal(b1-3)GalNAc
Summary of the method: as §1

[1] = biological target: Fuc(a1-2)Gal(b1-3)GalNAc(a1-3)[Fuc(a1-2)]Gal(b1-4)Glc
Summary of the method: as §1

[2] = biological target: Fuc(a1-2)Gal(b1-3)GalNAc(a1-3)[Fuc(a1-2)]Gal(b1-4)GlcNAc
Summary of the method: as §1

[3] = biological target: Fuc(a1-2)Gal(b1-3)GalNAc(b1-3)Gal
Summary of the method: as §1

[4] = biological target: Fuc(a1-2)Gal(b1-3)GalNAc(b1-3)Gal(a1-4)Gal(b1-4)Glc
Summary of the method: as §1

[5] = biological target: Fuc(a1-2)Gal(b1-3)GalNAc(b1-4)[Neu5Ac(a2-3)]Gal(b1-4)Glc
Summary of the method: as §1

Fuc(a1-2)Gal(b1-3)GlcNAc = biological target: Fuc(a1-2)Gal(b1-3)GlcNAc
Summary of the method: as §1

[6] = biological target: Fuc(a1-2)Gal(b1-3)GlcNAc(b1-2)Man(a1-3)[Fuc(a1-2)Gal(b1-3)GlcNAc(b1-2)Man(a1-6)]Man(b1-4)GlcNAc(b1-4)GlcNAc
Summary of the method: as §1

[7] = biological target: Fuc(a1-2)Gal(b1-3)GlcNAc(b1-2)Man(a1-3)[Fuc(a1-2)Gal(b1-3)GlcNAc(b1-2)Man(a1-6)]Man(b1-4)GlcNAc(b1-4)[Fuc(a1-6)]GlcNAc
Summary of the method: as §1

[8] = biological target: Fuc(a1-2)Gal(b1-3)GlcNAc(b1-3)Gal(b1-4)Glc
Summary of the method: as §1

[9] = biological target: Fuc(a1-2)Gal(b1-3)GlcNAc(b1-3)GalNAc
Summary of the method: as §1

[10] = biological target: Fuc(a1-2)Gal(b1-3)GlcNAc(b1-3)[Fuc(a1-2)Gal(b1-3)GlcNAc(b1-6)]GalNAc
Summary of the method: as §1

[11] = biological target: Fuc(a1-2)Gal(b1-3)GlcNAc(b1-3)[Gal(b1-4)GlcNAc(b1-6)]Gal(b1-4)Glc
Summary of the method: as §1

[12] = biological target: Fuc(a1-2)Gal(b1-3)GlcNAc(b1-3)[Neu5Ac(a2-6)Gal(b1-4)GlcNAc(b1-6)]Gal(b1-4)Glc
Summary of the method: as §1

[13] = biological target: Fuc(a1-2)Gal(b1-3)GlcNAc6S
Summary of the method: as §1

[14] = biological target: Fuc(a1-2)Gal(b1-3)[Fuc(a1-4)]GlcNAc
Summary of the method: as §1

[15] = biological target: Fuc(a1-2)Gal(b1-3)[Fuc(a1-4)]GlcNAc(b1-2)Man(a1-3)[Fuc(a1-2)Gal(b1-3)[Fuc(a1-4)]GlcNAc(b1-2)Man(a1-3)]Man(b1-4)GlcNAc(b1-4)GlcNAc
Summary of the method: as §1

[16] = biological target: Fuc(a1-2)Gal(b1-3)[Fuc(a1-4)]GlcNAc(b1-2)Man(a1-3)[Fuc(a1-2)Gal(b1-3)[Fuc(a1-4)]GlcNAc(b1-2)Man(a1-6)]Man(b1-4)GlcNAc(b1-4)[Fuc(a1-6)]GlcNAc(b1-4)[Fuc(a1-6)]GlcNAc
Summary of the method: as §1

[17] = biological target: Fuc(a1-2)Gal(b1-3)[Fuc(a1-4)]GlcNAc(b1-3)[Fuc(a1-3)[Gal(b1-4)]GlcNAc(b1-6)]Gal(b1-4)Glc
Summary of the method: as §1

[18] = biological target: Fuc(a1-2)Gal(b1-3)[Fuc(a1-4)]GlcNAc(b1-3)[Gal(b1-4)GlcNAc(b1-6)]Gal(b1-4)Glc
Summary of the method: as §1

Fuc(a1-2)Gal(b1-4)Glc = biological target: Fuc(a1-2)Gal(b1-4)Glc
Summary of the method: as §1

Fuc(a1-2)Gal(b1-4)Glc6S = biological target: Fuc(a1-2)Gal(b1-4)Glc6S
Summary of the method: as §1

Fuc(a1-2)Gal(b1-4)GlcNAc = biological target: Fuc(a1-2)Gal(b1-4)GlcNAc
Summary of the method: as §1

[19] = biological target: Fuc(a1-2)Gal(b1-4)GlcNAc(b1-2)Man
Summary of the method: as §1

[20] = biological target: Fuc(a1-2)Gal(b1-4)GlcNAc(b1-2)Man(a1-3)[Fuc(a1-2)Gal(b1-4)GlcNAc(b1-2)Man(a1-6)]Man(b1-4)GlcNAc(b1-4)GlcNAc
Summary of the method: as §1

[21] = biological target: Fuc(a1-2)Gal(b1-4)GlcNAc(b1-2)Man(a1-3)[Fuc(a1-2)Gal(b1-4)GlcNAc(b1-2)Man(a1-6)]Man(b1-4)GlcNAc(b1-4)[Fuc(a1-6)]GlcNAc
Summary of the method: as §1

[22] = biological target: Fuc(a1-2)Gal(b1-4)GlcNAc(b1-2)[Fuc(a1-2)Gal(b1-4)GlcNAc(b1-4)]Man(a1-3)[Fuc(a1-2)Gal(b1-4)GlcNAc(b1-2)Man(a1-6)]Man(b1-4)GlcNAc(b1-4)GlcNAc
Summary of the method: as §1

[23] = biological target: Fuc(a1-2)Gal(b1-4)GlcNAc(b1-3)Gal(b1-4)GlcNAc
Summary of the method: as §1

[24] = biological target: Fuc(a1-2)Gal(b1-4)GlcNAc(b1-3)Gal(b1-4)GlcNAc(b1-2)Man(a1-3)[Fuc(a1-2)Gal(b1-4)GlcNAc(b1-3)Gal(b1-4)GlcNAc(b1-2)Man(a1-6)]Man(b1-4)GlcNAc(b1-4)GlcNAc
Summary of the method: as §1

B1: Pwp3 (Candida glabrata) (protein)
chain: MGSSHHHHHHSSGLVPRGSHMASKNPVDFTTVCQFPDNFSKKPGFLATTARLGLWITGNSYKELLNYPGTFTLTTQQASTTTPNIQLRGTDLFTTIYGLTVYPLYLLVELQGYFVPTQSGMYTFSLTGSDDAAIIFIGNPSTFPCDAFKTWPQATANDITVTDSINPSRTLYMVKGVAYPLRIAYYNGLGNGVLNAAFTDPSGTKRTDWNGYIWQYDQCSTCTYK
glycan array binding signal (z-score) (Fuc(a1-2)Gal): -0.2 | glycan array binding signal (z-score) (Fuc(a1-2)Gal(b1-3)GalNAc): -0.278 | glycan array binding signal (z-score) [1]: -0.244 | glycan array binding signal (z-score) [2]: -0.193 | glycan array binding signal (z-score) [3]: -0.264 | glycan array binding signal (z-score) [4]: -0.289 | glycan array binding signal (z-score) [5]: 1.11 | glycan array binding signal (z-score) (Fuc(a1-2)Gal(b1-3)GlcNAc): 0.514 | glycan array binding signal (z-score) [6]: 0.634 | glycan array binding signal (z-score) [7]: -0.575 | glycan array binding signal (z-score) [8]: -0.35 | glycan array binding signal (z-score) [9]: -0.269 | glycan array binding signal (z-score) [10]: -0.579 | glycan array binding signal (z-score) [11]: -0.395 | glycan array binding signal (z-score) [12]: 0.149 | glycan array binding signal (z-score) [13]: -0.354 | glycan array binding signal (z-score) [14]: -0.092 | glycan array binding signal (z-score) [15]: -0.661 | glycan array binding signal (z-score) [16]: -0.34 | glycan array binding signal (z-score) [17]: -0.367 | glycan array binding signal (z-score) [18]: -0.178 | glycan array binding signal (z-score) (Fuc(a1-2)Gal(b1-4)Glc): -0.212 | glycan array binding signal (z-score) (Fuc(a1-2)Gal(b1-4)Glc6S): -0.442 | glycan array binding signal (z-score) (Fuc(a1-2)Gal(b1-4)GlcNAc): -0.402 | glycan array binding signal (z-score) [19]: -0.152 | glycan array binding signal (z-score) [20]: -0.499 | glycan array binding signal (z-score) [21]: -0.47 | glycan array binding signal (z-score) [22]: -0.356 | glycan array binding signal (z-score) [23]: -0.212 | glycan array binding signal (z-score) [24]: -0.363

Reference: the supplement of paper PMC8728848
